At least one read-out could not be matched to a standard name with certainty. Marks after values point to notes of the source that are not given here. For some assays here: For at least one compound, name, drawing or mass did not settle the structure.
Legend:
osteoclasts [1] = assay: Osteoclast cell formation, counting of TRAP staining positive cells; assay type: cell-based, Japanese White Rabbit; conditions: n = 6, x ± s
Description: (§1) The osteoclasts is cultured using a modified Chambers method, the new-born Japanese White Rabbit (1 week-age, provided by Experimental Animal Center of West China Medical Center of Sichuan University) is sacrificed by neck dislocation, and dipped in 75% ethanol for 5 min, long bones are taken out under sterile condition, and soft tissue, periosteum as well as osteoepiphysis on the bone surface are removed in D-Hanks balanced salt solution, clean the bone shaft with α-MEM 2 times, and then cut off the long bone longitudinally in α-MEM full media (containing 15% fetal calf serum, penicillin 100 U/mL, streptomycin […], 25 m MHEPES, pH 7.0-7.2), scrape the medullar cavity of the bone gently until it is clean, and use a pipette (5 mL syringe, 25 G syringe needle) to rinse the medullar cavity repeatedly with culture media, and then the rinse solution is collected and filtered with cell strainer to remove bone fragment, and centrifuged at 1000 rpm for 5 min, the precipitate is suspended by 10 mL α-MEM, a hematocytometer is used for cell counting, the cell density in suspension is adjusted to 1×10^7/mL, and inoculate the cells in 6-well plates, and co-cultured with glass slide or bone slice, after 60 min the culture media was replaced with α-MEM induction culture media (containing 15% fetal bovine serum, 10 nM 1, 25-(OH)2VitD3, penicillin 100 U/mL, streptomycin 100 μg/mL, 25 mM HEPES, pH 7.0-7.2), the culture media is replaced every 3 days.
Each group of osteoclasts is performed with tartrate-resistant acid phosphatase (TRAP) staining, observed in optical microscope, and the TRAP staining positive cells are counted.

osteoblasts MG63 = assay: Osteoblast proliferation, MTT method; assay type: cell-based; conditions: for Cell proliferation (MTT method), absorbance value under 490 nm: MG63, n = 4, x ± s
osteoclasts [2] = assay: Osteoclastic absorption, resorption pit size on bone slices; assay type: cell-based, Japanese White Rabbit; conditions: 5 days' culture, n = 6, x ± s
Description: as §1

osteoblasts = assay: Calcium deposition assay (alizarin red method); assay type: cell-based; conditions: for ARS concentration / calcium nodule size: 5 d, n = 4, x ± s
Description: Next, each well is added with 1 mL extract (extract preparation: 800 mL 10% acetic acid with 200 mL anhydrous ethyl alcohol), and extracted for 30 min-45 min, kept in dark, shaken slightly, the absorbance of 450 nm wavelength is measured and recorded. […] As alizarin red S and calcium are linear correlated, the calcium deposition is evaluated according to the alizarin red S concentration.

Structure (SMILES) | OC cell formation, TRAP staining positive cells counted (osteoclasts [1]; 10^−5 mol/L, 3 d) | OC cell formation, TRAP staining positive cells counted (osteoclasts [1]; 10^−5 mol/L, 5 d) | OC cell formation, TRAP staining positive cells counted (osteoclasts [1]; 10^−7 mol/L, 3 d) | OC cell formation, TRAP staining positive cells counted (osteoclasts [1]; 10^−7 mol/L, 5 d) | OC cell formation, TRAP staining positive cells counted (osteoclasts [1]; 10^−9 mol/L, 3 d) | OC cell formation, TRAP staining positive cells counted (osteoclasts [1]; 10^−9 mol/L, 5 d) | Cell proliferation (MTT method), absorbance value under 490 nm (osteoblasts MG63; 10^−5 mol/L, 24 h) | Cell proliferation (MTT method), absorbance value under 490 nm (osteoblasts MG63; 10^−5 mol/L, 48 h) | Cell proliferation (MTT method), absorbance value under 490 nm (osteoblasts MG63; 10^−5 mol/L, 72 h) | Cell proliferation (MTT method), absorbance value under 490 nm (osteoblasts MG63; 10^−7 mol/L, 24 h) | Cell proliferation (MTT method), absorbance value under 490 nm (osteoblasts MG63; 10^−7 mol/L, 48 h) | Cell proliferation (MTT method), absorbance value under 490 nm (osteoblasts MG63; 10^−7 mol/L, 72 h) | Cell proliferation (MTT method), absorbance value under 490 nm (osteoblasts MG63; 10^−9 mol/L, 24 h) | Cell proliferation (MTT method), absorbance value under 490 nm (osteoblasts MG63; 10^−9 mol/L, 48 h) | Cell proliferation (MTT method), absorbance value under 490 nm (osteoblasts MG63; 10^−9 mol/L, 72 h) | formation and size of resorption pit of the osteoclast (osteoclasts [2]; 10^−5 mol/L) | formation and size of resorption pit of the osteoclast (osteoclasts [2]; 10^−7 mol/L) | formation and size of resorption pit of the osteoclast (osteoclasts [2]; 10^−9 mol/L) | ARS concentration (osteoblasts; 10^−5 mol/L) [µg/mL] | calcium nodule size (osteoblasts; 10^−5 mol/L) [mm^2] | other results
O=c1c2ccccc2sn1-c1ccc(CC(O)(P(=O)(O)O)P(=O)(O)O)cc1 [SC-16, 4-(3-carbonylbenzo[d][1,2]sulfonazole-2(3H))-benzyl-1-hydroxyl-methylene diphosphonic acid] | 8 ± 3 | 6 ± 2 | 9 ± 4 | 12 ± 3 | 11 ± 5 | 15 ± 6 | 0.316 ± 0.007 | 0.324 ± 0.006 | 0.262 ± 0.007 | 0.343 ± 0.005 | 0.415 ± 0.007 | 0.527 ± 0.011 | 0.348 ± 0.007 | 0.432 ± 0.008 | 0.612 ± 0.007 | 13.01 ± 1.17 | 69.02 ± 15.61 | 88.76 ± 6.23 | 288 ± 25 | 1.12 ± 0.10 | ARS concentration (osteoblasts; 10^−7 mol/L): 313 ± 11 µg/mL; calcium nodule size (osteoblasts; 10^−7 mol/L): 1.55 ± 0.06 mm^2; ARS concentration (osteoblasts; 10^−9 mol/L): 395 ± 29 µg/mL; calcium nodule size (osteoblasts; 10^−9 mol/L): 1.97 ± 0.19* mm^2
O=c1c2ccccc2[se]n1-c1ccc(CC(P(=O)(O)O)P(=O)(O)O)cc1 [SC-1, 4-(3-carbonylbenzo[d][1,2]selenazole-2(3H))-benzyl-methylene diphosphonic acid] | 5 ± 1 | 1 ± 1 | 14 ± 4 | 10 ± 5 | 12 ± 3 | 15 ± 3 | 0.340 ± 0.009 | 0.398 ± 0.011 | 0.299 ± 0.009 | 0.337 ± 0.011 | 0.425 ± 0.007 | 0.649 ± 0.010 | 0.371 ± 0.009 | 0.437 ± 0.008 | 0.746 ± 0.011 | 8.73 ± 1.75 | 59.16 ± 11.85 | 98.92 ± 7.26 | 277 ± 26 | 1.01 ± 0.12 | ARS concentration (osteoblasts; 10^−7 mol/L): 389 ± 43 µg/mL; calcium nodule size (osteoblasts; 10^−7 mol/L): 1.62 ± 0.09* mm^2; ARS concentration (osteoblasts; 10^−9 mol/L): 455 ± 31 µg/mL; calcium nodule size (osteoblasts; 10^−9 mol/L): 2.53 ± 0.35** mm^2
O=c1c2ccccc2[se]n1CCC(O)(P(=O)(O)O)P(=O)(O)O [SC-4, 2-(3-carbonylbenzo[d][1,2]selenazole-2(3H))-ethyl-1-hydroxyl-methylene diphosphonic acid] | 6 ± 2 | 3 ± 1 | 11 ± 2 | 12 ± 2 | 13 ± 2 | 13 ± 4 | 0.335 ± 0.007 | 0.411 ± 0.010 | 0.302 ± 0.008 | 0.341 ± 0.011 | 0.466 ± 0.006 | 0.637 ± 0.011 | 0.365 ± 0.008 | 0.431 ± 0.008 | 0.755 ± 0.009 | 8.42 ± 2.25 | 64.59 ± 8.87 | 90.51 ± 9.07 | 297 ± 33 | 1.14 ± 0.09 | effect on MG63 cell proliferation (in words) (osteoblasts MG63; 10^−9 mol/L, cocultured 72 h, P<0.05 vs control groups): enhance MG63 cell proliferation; ARS concentration (osteoblasts; 10^−7 mol/L): 401 ± 45 µg/mL; calcium nodule size (osteoblasts; 10^−7 mol/L): 1.51 ± 0.08 mm^2; ARS concentration (osteoblasts; 10^−9 mol/L): 463 ± 28 µg/mL; calcium nodule size (osteoblasts; 10^−9 mol/L): 2.39 ± 0.28** mm^2; calcium deposition of osteoblasts (in words) (osteoblasts; lower / low concentration): increases the calcium deposition of osteoblasts obviously
O=c1c2ccccc2[se]n1-c1ccc(CCC(O)(P(=O)(O)O)P(=O)(O)O)cc1 [SC-14, 4-(3-carbonylbenzo[d][1,2]selenazole-2(3H))-phenylethyl-1-hydroxyl-methylene diphosphonic acid] | 7 ± 3 | 5 ± 1 | 11 ± 6 | 12 ± 4 | 13 ± 3 | 14 ± 9 | 0.324 ± 0.009 | 0.388 ± 0.008 | 0.324 ± 0.009 | 0.358 ± 0.010 | 0.426 ± 0.009 | 0.627 ± 0.011 | 0.377 ± 0.012 | 0.435 ± 0.008 | 0.637 ± 0.009 | 8.80 ± 2.31 | 79.79 ± 9.04 | 96.37 ± 8.72 | 239 ± 7 | 1.17 ± 0.04 | ARS concentration (osteoblasts; 10^−7 mol/L): 411 ± 19 µg/mL; calcium nodule size (osteoblasts; 10^−7 mol/L): 1.87 ± 0.15* mm^2; ARS concentration (osteoblasts; 10^−9 mol/L): 401 ± 21 µg/mL; calcium nodule size (osteoblasts; 10^−9 mol/L): 2.01 ± 0.20* mm^2
